# This is one part of the list. The full chains were built here from the parent and the listed change. Inactive controls read about 0.05.
# B1: TEV protease; numbered along this chain (parent)
# chain: MGESLFKGPRDYNPISSSICHLTNESDGHTTSLYGIGFGPFIITNKHLFRRNNGTLVVQSLHGVFKVKDTTTLQQHLVDGRDMIIIRMPKDFPPFPQKLKFREPQREERICLVTTNFQTKSMSSMVSDTSCTFPSGDGIFWKHWIQTKDGQCGSPLVSTRDGFIVGIHSASNFTNTNNYFTSVPKNFMELLTNQEAQQWVSGWRLNADSVLWGGHKVFMVKPEEPFQPVKEATQL
# Variants of: B1
# Assay: raw area under fraction-flipped curve 0-4 h after induction (AUC4h, not background-subtracted), DNA-recorder readout of cleavage of the substrate (dimensionless); higher = more cleavage of the substrate by the protease variant
# Conditions: temperature: 34 °C; time window: 0-4 h after rhamnose induction
# Description: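 In vivo DNA recorder in E. coli TOP10(DE3) ΔrhaA at 34 °C. Each TEVp single-site mutant (parent TEVp 0) is paired with a single-site variant of the 7-mer TEVs (canonical ENLYFQ|S). The substrate sits between flexible linkers in a Bxb1-sfGFP-TEVs-SsrA fusion, so cleavage stabilises Bxb1 and speeds flipping of a recombination array, read by NGS. The value is the raw area under the fraction-flipped curve over 0-4 h after rhamnose induction (AUC4h), with ≥20 reads per time point. It is not background-subtracted; inactive controls average about 0.047.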
# 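Note: Bxb1 expression induced with 0.2% (w/v) L-rhamnose at OD600 near 0.5, cultures sampled hourly, flipped fraction per protease–substrate barcode pair counted by paired-end Illumina sequencing.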
Variant,area with substrate EALYFQS,area with substrate EELYFQS,area with substrate EGLYFQS,area with substrate EILYFQS,area with substrate ELLYFQS,area with substrate EQLYFQS,area with substrate ESLYFQS,area with substrate ETLYFQS,area with substrate EWLYFQS,area with substrate EYLYFQS,area with substrate EDLYFQS,area with substrate EFLYFQS,area with substrate EKLYFQS,area with substrate EMLYFQS,area with substrate ERLYFQS,area with substrate EVLYFQS,area with substrate ECLYFQS,area with substrate EHLYFQS,area with substrate EPLYFQS
R160W,0.0547,0.166,0.101,0.117,0.118,0.125,0.097,0.116,0.0704,0.0782,,,,,,,,,
Q151Y,0.0789,,0.0715,0.0962,0.0776,0.0797,0.0793,0.0449,,,0.109,0.0843,0.0838,0.0743,0.0842,0.0756,,,
Q151T,0.0906,,,0.052,0.09,0.0992,0.0897,0.0945,0.0921,,,,,,0.0856,0.0854,0.0902,0.0946,0.0691
Q151N,0.081,0.0676,0.064,0.0795,0.0624,0.0714,0.0739,0.0896,,,,0.0697,0.085,,0.0816,0.0587,0.0712,0.0729,0.0691
G166W,0.0473,0.0554,,0.0476,,,0.0472,,0.0544,,0.0494,0.0487,,,0.0332,,,0.0376,
G166F,0.043,0.0507,0.0445,,,,0.0512,,0.0664,0.0819,,,0.0496,0.0547,0.0477,0.0501,0.0506,0.0565,
S130V,0.124,,,,,0.104,0.105,0.104,,0.0975,,,0.126,0.103,0.0871,0.104,0.101,,0.132
S135K,0.0825,,,0.0553,0.0495,0.068,0.072,,,,0.043,,,,0.0593,0.0599,0.0583,0.0591,
S135F,0.0583,,0.0637,0.0685,0.0741,0.0613,0.0614,0.062,0.0522,0.0572,0.0621,0.0569,,0.0821,0.0685,0.0563,,0.0742,
S135N,0.0763,0.134,,0.0487,0.0769,0.0802,0.0824,0.0346,0.0871,,0.0897,,0.0798,0.0857,0.0669,0.0814,,0.0712,0.122
G162D,0.0737,,0.0988,0.0827,0.0744,,,,0.0803,,,0.121,,0.118,,0.185,0.098,0.0659,
G162L,0.0908,0.105,,0.0883,,,0.102,0.106,0.0509,0.0931,,,,0.097,0.104,,0.111,0.0981,
G162F,0.105,0.0759,0.0779,0.093,0.0712,0.0909,0.0841,,,0.0817,0.13,,0.0797,,0.0961,0.0839,,,0.116
G162R,0.144,,0.105,0.0867,,,0.0984,,,0.131,,0.1,0.108,0.0114,,0.094,0.0887,0.109,
